Source: ChEMBL document CHEMBL1201862, “PubChem BioAssay data set” (2004)
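Assay format: 96-well plates, 48-hour exposure. The concentration for 50% growth inhibition is given as GI50.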 Calls of active or inactive are those of the source. Cut-off read from the data, not from the text of the source: active = GI50 up to about 1.1 µM and inactive = higher.

Test system: NCI-H322M
Assay: DTP human tumour cell line panel, 48 h

Q: For CC(C)=CC1C[C@H](C2CC=C3C2(C)CCC2[C@@]3(C)C(=O)CC3[C@]2(C)C=CC(=O)[C@]3(C)CO)CO1 (stereo partly drawn), which GI50 is on record?
A: The GI50 was inactive: 24.2 µM.

Q: Which GI50 does the source give for O=C1/C(=C/c2ccc([N+](=O)[O-])cc2)CCCc2ccccc21 here?
A: The GI50 was inactive: > 100 µM.

Q: CCCCCOc1ccc(/C=N\c2ccc(-c3ccc(/N=C\c4ccc(OCCCCC)cc4)c(OC)c3)cc2OC)cc1 was tested. Which GI50 did it give?
A: Its GI50 is inactive: > 100 µM.

Q: How did the GI50 turn out when CCOc1ccc2nc(-c3ccc(O)cc3)sc2c1 was run?
A: The GI50 was inactive: > 100 µM.

Q: How did the GI50 turn out when CN1N=C(N)c2cn(C3OC(COP(=O)(O)O)C(O)C3O)c3ncnc1c23 (stereo not drawn) was run?
A: The GI50 was inactive: 2.49 µM.

Q: With CN1CCc2ccccc2C(C(=O)c2ccc3c(c2)OCO3)C1=O (stereo not drawn) as the compound, how does the GI50 read?
A: The GI50 was inactive: > 100 µM.

Q: COc1ccc(NC(C)=O)cc1N1C(=O)/C(=C\c2ccccc2)SC1c1cc(OC)c(OC)c(OC)c1 (stereo not drawn) was tested. Which GI50 did it give?
A: Its GI50 is inactive: 25.9 µM.

Q: How did the GI50 turn out when O=[N+]([O-])c1cccc(Cl)c1Oc1ccc(S(=O)(=O)N/C(=N\O)Nc2ccc(Cl)cc2)cc1 was run?
A: Its GI50 is inactive: 12.3 µM.

Q: Which GI50 does the source give for COc1cc(-c2c3c(cc4c2OCO4)[C@@H](Nc2ccc(-c4ccc(-c5ccc(N[C@@H]6c7cc8c(cc7C(c7cc(OC)c(O)c(OC)c7)[C@H]7C(=O)OC[C@H]67)OCO8)cc5)cc4)cc2)[C@H]2COC(=O)[C@@H]2C3)cc(OC)c1O (stereo partly drawn) here?
A: The GI50 was inactive: 2.76 µM.

Q: With COc1cc2c(cc1OC)C1c3ccccc3CCN1CC2 (stereo not drawn) as the compound, how does the GI50 read?
A: The GI50 was inactive: > 100 µM.

Q: CC(=O)OCC1OC(OCCCOP(=S)(OCCC#N)OCC2OC(n3ccc(N)nc3=O)C(OC(=O)c3ccccc3)C2OC(=O)c2ccccc2)C(OC(C)=O)C(OC(C)=O)C1OC(C)=O (stereo not drawn) was tested. Which GI50 did it give?
A: Its GI50 is inactive: > 100 µM.

Q: Which GI50 does the source give for CN1C(OCc2ccccc2)c2c(ccc3c2OCO3)C2C=Cc3cc4c(cc3C21)OCO4 (stereo not drawn) here?
A: The GI50 was inactive: 1.23 µM.

Q: For C=C1c2cc3c(cc2CC12Cc1cc4c(cc1C2=O)CCC4)CCC3 (stereo not drawn), which GI50 is on record?
A: Its GI50 is inactive: > 100 µM.

Q: Which GI50 does the source give for COc1ccc2c(c1)C(=O)CC(N)C2 (stereo not drawn) here?
A: The GI50 was inactive: > 100 µM.

Q: How did the GI50 turn out when CCO[C@]12CCC[C@H]1[C@@H]1C(=O)c3ccccc3C(=O)C1=C(C)O2 was run?
A: The GI50 was inactive: > 100 µM.

Q: With COc1ccc(N2C(Cl)C(=O)C2c2c[nH]c3ccccc23)cc1 (stereo not drawn) as the compound, how does the GI50 read?
A: The GI50 was inactive: > 100 µM.

Q: For N=c1c2ccccc2nc2oc3ccc(Cl)cc3n12, which GI50 is on record?
A: Its GI50 is inactive: 43.5 µM.

Q: How did the GI50 turn out when C=C1CC(Cn2ccc(=O)[nH]c2=O)(c2ccc(Cl)cc2)OC1=O (stereo not drawn) was run?
A: The GI50 was inactive: 17 µM.

Q: For CN(C)C(=O)OC(Cn1cncn1)(Cn1cncn1)c1ccc(Cl)cc1Cl, which GI50 is on record?
A: Its GI50 is inactive: > 100 µM.

Q: With O=Cc1ccc(OCc2cccc(COc3ccc(/C=N\Nc4ccc([N+](=O)[O-])cc4[N+](=O)[O-])cc3)n2)cc1 as the compound, how does the GI50 read?
A: Its GI50 is inactive: > 100 µM.

Q: How did the GI50 turn out when C/C(=C1/N=C(c2cc([N+](=O)[O-])ccc2Cl)N(C2=CC=C(Cl)CC2)C1=O)c1cc2ccccc2oc1=O was run?
A: The GI50 was inactive: 64.4 µM.

Q: For COC(=O)c1c(CC(Cc2ccc3c(c2)CCCC3)C(=O)O)ccc2c1CCCC2 (stereo not drawn), which GI50 is on record?
A: Its GI50 is inactive: 36 µM.

Q: Which GI50 does the source give for C[C@H](C(=O)O)C(=O)NC(=O)N(Cc1ccccc1)N=O here?
A: Its GI50 is inactive: > 100 µM.

Q: With O=C(c1ccco1)C1CC(c2ccc3ccccc3c2O)=NN1c1ccc([N+](=O)[O-])cc1[N+](=O)[O-] (stereo not drawn) as the compound, how does the GI50 read?
A: Its GI50 is inactive: 22.6 µM.

Q: COc1ccc(C(C2=C(C)C(=O)c3ccccc3C2=O)c2ccc(C(C)C)cc(=O)c2O)cc1 (stereo not drawn) was tested. Which GI50 did it give?
A: Its GI50 is inactive: 4.68 µM.

Q: For O=c1c(S(=O)(=O)Oc2ccccc2)coc2cc(F)ccc12, which GI50 is on record?
A: Its GI50 is inactive: 20 µM.

Q: With S=C(c1c[nH]c2ccccc12)N1CCN(c2ccccc2)CC1 as the compound, how does the GI50 read?
A: The GI50 was inactive: > 100 µM.

Q: With COc1ccc(-c2c3c(nc4nc(SCC(=O)c5ccc(Br)cc5)nc(N)c24)CCCC3)cc1OC as the compound, how does the GI50 read?
A: Its GI50 is inactive: > 100 µM.

Q: Which GI50 does the source give for CC(=O)O[C@@H]1C2C(=O)OC(=O)C2C2CCC[C@]23O[C@H]13 (stereo partly drawn) here?
A: The GI50 was inactive: > 100 µM.

Q: Which GI50 does the source give for CC(C)(Br)C(=O)C(Br)Br here?
A: The GI50 was inactive: 17.2 µM.

Q: With CCOC(=O)NC(=O)c1cn(CC(=O)NCC(=O)NCC(=O)N2CCN(CCn3c(C)nc(C(N)=O)c3N)CC2)c(=O)[nH]c1=O as the compound, how does the GI50 read?
A: Its GI50 is inactive: > 100 µM.

Q: O=C(Nc1ccc2ncccc2c1)Nc1ccc2ncccc2c1 was tested. Which GI50 did it give?
A: The GI50 was inactive: > 100 µM.

Q: Which GI50 does the source give for C/C=C\C(CC(=O)NCCc1cn(C(=O)OCc2ccccc2)c2ccccc12)CC(=O)OC (stereo not drawn) here?
A: The GI50 was inactive: > 100 µM.

Q: How did the GI50 turn out when COC(=O)C1(C(=O)OC)N=C(C)OC1c1ccoc1 (stereo not drawn) was run?
A: The GI50 was inactive: > 100 µM.

Q: With Cc1cnc(-n2c(C)nc3cc(Cl)ccc3c2=O)s1 as the compound, how does the GI50 read?
A: The GI50 was inactive: 28.1 µM.

Q: With CC(=O)/C=C/C=C(\C)CC/C=C(\C)CC(C)C as the compound, how does the GI50 read?
A: Its GI50 is inactive: 85.1 µM.

Q: O=c1c2c(nc3n1CCC3)sc1c(O)c(Br)ccc12 was tested. Which GI50 did it give?
A: The GI50 was inactive: 18.2 µM.

Q: CC(=O)OCCn1c(Cc2ccc(C)cc2)nn(C(C)=O)c1=O was tested. Which GI50 did it give?
A: Its GI50 is inactive: > 100 µM.

Q: With Nc1ncnc2nc(N3CCN(CCO)CC3)[nH]c12 as the compound, how does the GI50 read?
A: The GI50 was inactive: > 100 µM.

Q: Cc1nc2ccc(Br)cc2c(=O)n1-c1nnc(C(C)(C)C)s1 was tested. Which GI50 did it give?
A: The GI50 was inactive: > 10 µM.

Q: How did the GI50 turn out when COC(=O)CCC1(C)C2CCC1/C(=N/O)C2 (stereo not drawn) was run?
A: The GI50 was inactive: > 100 µM.

Q: CC1CCN(c2nnc(Cl)cc2C(=O)c2ccccc2)CC1 was tested. Which GI50 did it give?
A: Its GI50 is inactive: 49.9 µM.

Q: Which GI50 does the source give for CC1=C(OC2OC(CO)C(O)C(O)C2O)C(=O)C[C@H]2C1=CC[C@@H]1[C@@]2(C)C(=O)C[C@]2(C)[C@@H]([C@@](C)(O)C(=O)CCC(C)(C)O)[C@H](O)C[C@@]12C (stereo partly drawn) here?
A: The GI50 was inactive: > 100 µM.

Q: With Cn1c2ccc(Cl)cc2c2ccc3c(c21)C(=O)C=CC3=O as the compound, how does the GI50 read?
A: The GI50 was inactive: > 10 µM.

Q: How did the GI50 turn out when Oc1ccc(-c2c3c(nc4c2CCc2ccc(Br)cc2-4)-c2cc(Br)ccc2CC3)cc1 was run?
A: The GI50 was inactive: 17.5 µM.

Q: Which GI50 does the source give for O=C1C2c3[nH]c4ccccc4c3C3CCCCCCC3C2C(=O)N1c1ccccc1 (stereo not drawn) here?
A: The GI50 was inactive: 31.1 µM.

Q: COc1cc2c(cc1OC)C1C(O)C(OC)C=C3CC[N+](C)(C2)C31 (stereo not drawn) was tested. Which GI50 did it give?
A: Its GI50 is inactive: > 100 µM.

Q: Which GI50 does the source give for CC12CCC(C/C1=N\NC(N)=O)C2(C)C (stereo not drawn) here?
A: Its GI50 is inactive: > 100 µM.

Q: Cc1ccc(/N=N/C(=N/NC(=O)c2cc(Cl)ccc2O)c2ccc(N(CCC#N)CCC#N)cc2C)cc1 was tested. Which GI50 did it give?
A: The GI50 was inactive: 29.9 µM.

Q: C=C(Cl)C(Cl)(CBr)CCC(Cl)C(C)C (stereo not drawn) was tested. Which GI50 did it give?
A: The GI50 was inactive: 3.78 µM.

Q: Which GI50 does the source give for COc1ccc2c(C)c(Oc3c(Cl)c(Cl)c(O)c(C#N)c3C#N)oc2c1 here?
A: The GI50 was inactive: > 100 µM.

Q: With COc1ccc(NC(=O)c2cc(NC(=O)/C=C/c3ccccc3)c(OC)c(OC)c2)cc1 as the compound, how does the GI50 read?
A: Its GI50 is inactive: 33 µM.

Q: Which GI50 does the source give for CCCCc1ccc(Nc2nc(Cl)c3c(ncn3C3CC(Oc4ccc(C)cc4)C(COc4ccc(C)cc4)O3)n2)cc1 (stereo not drawn) here?
A: The GI50 was inactive: 74.3 µM.

Q: How did the GI50 turn out when Cc1ccccc1N(CC(=O)O)S(=O)(=O)c1ccccc1 was run?
A: The GI50 was inactive: > 100 µM.

Q: With CC(C)(C)COC(=O)C(C)(C)NC(=O)C(CC(=O)OCc1ccccc1)NC(=O)OCc1ccccc1 (stereo not drawn) as the compound, how does the GI50 read?
A: Its GI50 is inactive: > 100 µM.

Q: For Oc1ccc(SCc2ccc(NCc3ccccc3)cc2)cc1, which GI50 is on record?
A: The GI50 was inactive: 18.6 µM.

Q: With COc1ccc(-c2cc(=O)c3ccc(O)cc3o2)cc1OC as the compound, how does the GI50 read?
A: Its GI50 is inactive: 26.1 µM.

Q: Which GI50 does the source give for O=C(O)c1cccc(S(=O)(=O)NN2C(=O)CSC2c2c(O)ccc3ccccc23)c1 (stereo not drawn) here?
A: Its GI50 is inactive: 23.5 µM.

Q: Which GI50 does the source give for O=Cc1[nH]c(=O)[nH]c(=O)c1C(=O)O here?
A: The GI50 was inactive: > 100 µM.

Q: For c1ccc2c(c1)CCc1c-2n(CCN2CCOCC2)c2ccccc12, which GI50 is on record?
A: Its GI50 is inactive: > 100 µM.

Q: How did the GI50 turn out when O=CC(=C(I)I)c1ccccc1 was run?
A: Its GI50 is inactive: 15.5 µM.

Q: For COc1cc(Oc2nc3c(N)cc(C(F)(F)F)cc3nc2-c2ccccc2)cc(OC)c1OC, which GI50 is on record?
A: The GI50 was inactive: 6.92 µM.

Q: CCOc1ccccc1NC(=O)CCc1nnc(S)[nH]1 was tested. Which GI50 did it give?
A: The GI50 was inactive: > 100 µM.
